This passage reports enrichment score results from the supplement of paper PMC10369915.

The other results are listed elsewhere or left out. Cut-off read from the data, not from the text of the source: active = 3.2 or more and inactive = the rest. Most of these values are background signal.

To fix the notation:
B1: RPGRIP1_Y823_YF (peptide)
chain: TQPSPYAVFRF
B2: RPGRIP1_Y823 (peptide)
chain: TQPSPYAVYRF
B3: RPS8_Y113_R110G_YF (peptide)
chain: PFGQWYESHFA
B4: RS1_Y177_G178D (peptide)
chain: NNRVFYDNSDR
B5: RPS19_Y54_A57P (peptide)
chain: DENWFYTRPAS
B6: RPS19_Y48_W52C (peptide)
chain: KELAPYDENCF
B7: RPS8_Y109_R110G (peptide)
chain: IDSTPYGQWYE
B8: RPL35_Y78_YF (peptide)
chain: FKGKKYKPLDL
B9: RPS6KA3_Y483 (peptide)
chain: TLKDVYDDGKY
B10: RPS6KA3_Y488_YF (peptide)
chain: FDDGKYVFVVT
B11: RPS19_Y48 (peptide)
chain: KELAPYDENWF
B12: RPS19_Y54_T55M (peptide)
chain: DENWFYMRAAS
B13: RS1_Y166_W163C_YF (peptide)
chain: LNCIFYKDQTG
B14: RPL35_Y78_K77N_YF (peptide)
chain: FKGKNYKPLDL
B15: RPL10_Y75_K78E (peptide)
chain: ICANKYMVESC
B16: RPS6KA3_Y483_YF (peptide)
chain: TLKDVYDDGKF
B17: RPF2_Y59_G60S (peptide)
chain: ALKKPYSVLYK
B18: RSPO4_Y112_C107R (peptide)
chain: RKRQFYLYKGK
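Note: displayed peptides selected on beads carrying the immobilized SH2 domain, with library peptides lacking any tyrosine serving as negative controls.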

The target of the first experiment is SHP2 C-SH2 domain E139D. Nature of the experiment: enrichment score (SH2-bound / input frequency) (ratio); bacterial display of known human phosphotyrosine sites (pTyr-Var adds point mutants) read by sequencing; higher = stronger binding; tyrosines were phosphorylated by kinases first. The settings on record: peptide library: pTyr-Var.
In the case of B1, the enrichment score is inactive: 0.974.
For the molecule B2, the enrichment score was inactive: 0.938.
On to B3, for which the enrichment score was inactive: 0.885.
The same measure, in the same setting: next, B4: inactive: 0.792; B5: inactive: 0.903.
As for B6, the enrichment score was inactive: 0.854.
Turning to B7, the enrichment score was inactive: 0.936.
For B8, the enrichment score was inactive: 0.516.
As for B9, the enrichment score is inactive: 0.838.
As for B10, the enrichment score was inactive: 0.709.
Take B11: the enrichment score is inactive: 0.828.
As for B12, the enrichment score was inactive: 0.861.
As for B13, the enrichment score is inactive: 0.991.
On to B14, for which the enrichment score was inactive: 0.988.
Still for that read-out and setting: the value for B15 was inactive: 1.78; that for B16 was inactive: 0.393; that for B17 was inactive: 2.76.
As for B18, the enrichment score is inactive: 0.153.

The next experiment addresses SHP2 C-SH2 domain wild-type. The description is as above. The following applies: peptide library: pTyr-Var.
Consider B1, for which the enrichment score was inactive: 0.992.
Take B2: the enrichment score was inactive: 0.754.
With B3, the enrichment score was inactive: 0.88.
Regarding B4, the enrichment score is inactive: 0.647.
Take B5: the enrichment score was inactive: 0.866.
Still for that read-out and setting: next, B6: inactive: 0.642; B7: inactive: 0.844.
Regarding B8, the enrichment score was inactive: 0.462.
With B9, the enrichment score was inactive: 0.623.
Consider B10, for which the enrichment score was inactive: 0.914.
For the molecule B11, the enrichment score was inactive: 0.65.
On to B12, for which the enrichment score is inactive: 0.776.
Same read-out and setting: next, B13: inactive: 1.42; B14: inactive: 0.785; B15: inactive: 1.65.
On the same count and under the same terms, the value for B16 was inactive: 0.423.
Take B17: the enrichment score was inactive: 2.38.
On the same count and under the same terms, the value for B18 was inactive: 0.178.

A further experiment addresses SHP2 N-SH2 domain L43F. Described as above. The settings on record: peptide library: pTyr-Var.
For the molecule B1, the enrichment score is inactive: 1.09.
For the molecule B2, the enrichment score is inactive: 0.517.
For the molecule B3, the enrichment score was inactive: 0.926.
Still for that read-out and setting: the value for B4 was inactive: 0.907.
On to B5, for which the enrichment score is inactive: 0.862.
Regarding B6, the enrichment score was inactive: 0.573.
For the molecule B7, the enrichment score is inactive: 0.769.
In the case of B8, the enrichment score is inactive: 0.614.
With B9, the enrichment score was inactive: 0.729.
Consider B10, for which the enrichment score was inactive: 0.655.
Take B11: the enrichment score is inactive: 0.689.
B12: the enrichment score is inactive: 0.778.
B13: the enrichment score is inactive: 0.781.
With B14, the enrichment score is inactive: 0.808.
As to B15, the enrichment score was inactive: 2.1.
As for B16, the enrichment score was inactive: 0.416.
On to B17, for which the enrichment score is inactive: 2.48.
As for B18, the enrichment score was inactive: 0.211.

For a further experiment, the target named is SHP2 N-SH2 domain T42A. Described as above. The settings on record: peptide library: pTyr-Var.
For B1, the enrichment score was inactive: 1.42.
B2: the enrichment score is inactive: 0.612.
On to B3, for which the enrichment score is inactive: 1.03.
As for B4, the enrichment score is inactive: 0.776.
Turning to B5, the enrichment score was inactive: 0.853.
The same measure, in the same setting: next, B6: inactive: 0.654; B7: inactive: 0.677; B8: inactive: 0.49.
In the case of B9, the enrichment score is inactive: 0.767.
As for B10, the enrichment score is inactive: 0.83.
Take B11: the enrichment score is inactive: 0.639.
Still for that read-out and setting: next, B12: inactive: 0.771.
The same measure, in the same setting: the value for B13 was inactive: 1.03; that for B14 was inactive: 0.718.
On the same count and under the same terms, next, B15: inactive: 1.71; B16: inactive: 0.455; B17: inactive: 1.97.
For B18, the enrichment score was inactive: 0.247.

The next experiment has as its target SHP2 N-SH2 domain T52S. The experiment is described as above. The following applies: peptide library: pTyr-Var.
For the molecule B1, the enrichment score was inactive: 1.04.
The same measure, in the same setting: the value for B2 was inactive: 0.625; that for B3 was inactive: 0.847.
For B4, the enrichment score is inactive: 0.706.
Still for that read-out and setting: the value for B5 was inactive: 0.861.
On to B6, for which the enrichment score is inactive: 0.619.
Consider B7, for which the enrichment score is inactive: 0.883.
With B8, the enrichment score was inactive: 0.427.
The same measure, in the same setting: the value for B9 was inactive: 0.82; that for B10 was inactive: 0.597; that for B11 was inactive: 0.843.
In the case of B12, the enrichment score is inactive: 0.936.
For B13, the enrichment score was inactive: 1.44.
Take B14: the enrichment score is inactive: 0.931.
Turning to B15, the enrichment score was inactive: 1.77.
B16: the enrichment score was inactive: 0.581.
Same read-out and setting: next, B17: inactive: 2.53; B18: inactive: 0.205.

The next experiment addresses SHP2 N-SH2 domain wild-type. Described as above. The following applies: peptide library: pTyr-Var.
Turning to B1, the enrichment score was inactive: 0.82.
Same read-out and setting: the value for B2 was inactive: 0.792; that for B3 was inactive: 1.07; that for B4 was inactive: 0.787.
The same measure, in the same setting: the value for B5 was inactive: 0.937; that for B6 was inactive: 0.697; that for B7 was inactive: 0.918.
B8: the enrichment score is inactive: 0.494.
B9: the enrichment score is inactive: 0.641.
In the case of B10, the enrichment score is inactive: 0.773.
Same read-out and setting: next, B11: inactive: 0.822; B12: inactive: 0.687.
Same read-out and setting: next, B13: inactive: 2.73; B14: inactive: 0.723.
Still for that read-out and setting: the value for B15 was inactive: 1.7; that for B16 was inactive: 0.499.
With B17, the enrichment score is inactive: 2.37.
As for B18, the enrichment score is inactive: 0.193.
